Assay results reported in PubChem BioAssay AID1240 (Sanford-Burnham Center for Chemical Genomics, 2008).
Among all 50,000 compounds or so, about 800 (1.6%) showed an effect of 50% or more. This is one part of the list.

Target: Bcl-2-like protein 10 (Homo sapiens) (UniProt Q9HD36)
Test: TR3 peptide-Bcl-B binding displacers, biochemical primary FP assay, phenotype converters (AID 1240);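 also: 0% = Bcl-B with tracer peptide and DMSO and 100% = tracer peptide lacking Bcl-B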
Conditions: GST-Bcl-B / FITC-TR3 peptide fluorescence polarization; stronger effect = higher value; compound at 3.75 mg/L

Chain of UniProt Q9HD36 (Q9HD36 whole entry, looked up): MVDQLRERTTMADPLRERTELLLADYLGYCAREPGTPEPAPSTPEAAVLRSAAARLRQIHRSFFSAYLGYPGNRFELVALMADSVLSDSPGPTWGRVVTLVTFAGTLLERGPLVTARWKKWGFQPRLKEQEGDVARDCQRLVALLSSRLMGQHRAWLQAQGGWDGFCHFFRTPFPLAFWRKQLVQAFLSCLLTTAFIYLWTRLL

| SMILES | displacement |
| --- | --- |
| COc1ccc(Cl)cc1NC(=O)c1cccc(F)c1 | -13.8% |
| Cc1ccc2nc(NC(=O)CSc3ncn[nH]3)sc2c1 | -26% |
| Cc1c(Cl)c([N+](=O)[O-])nn1CC(=O)N1CCCC1 | 0.4% |
| COc1cc(F)ccc1S(=O)(=O)N1CCCCCC1 | -4% |
| O=C(O)C1C2CCC(O2)C1C(=O)NCc1ccc(F)cc1 (stereo not given) | 11.2% |
| O=C(Cc1ccccc1)N1CCN(S(=O)(=O)c2ccc(Cl)cc2)CC1 | -7.4% |
| Cc1cc(C)c2oc(-c3ccc(NC(=O)c4ccccc4[N+](=O)[O-])cc3)nc2c1 | 16.3% |
| CCOC(=O)c1ccccc1NC(=O)CSC(N)=O | 16.7% |
| COc1cc(NS(=O)(=O)c2ccc(NC(=O)c3ccc(-c4ccccc4)cc3)cc2)ncn1 | 6.5% |
| COc1ccccc1/C=C/C(=O)c1ccc(Br)cc1 | -7% |
| CC(=O)N1c2ccccc2Nc2ccccc21 | 8.1% |
| O=C(O)c1c[nH]c2cc(N3CCOCC3)c(F)cc2c1=O | -0.4% |
| O=C(Cc1ccc([N+](=O)[O-])cc1)N1c2ccccc2Sc2ccccc21 | 3.2% |
| Cc1ccc(C2=Nc3ccccc3Nc3c2cc([N+](=O)[O-])cc3[N+](=O)[O-])cc1 | -6.9% |
| CC(=O)c1ccc(N2C(=O)c3ccc(Oc4ccc5c(c4)C(=O)N(c4ccc(C(C)=O)cc4)C5=O)cc3C2=O)cc1 | -2.7% |
| COC(=O)c1ccccc1NC(=O)c1nn(C)cc1[N+](=O)[O-] | -8.1% |
| O=C(COc1ccc([N+](=O)[O-])cc1)Nc1ccc2nn(-c3ccccc3)nc2c1 | 15.1% |
| CC(CC(=O)Nc1ccc(Br)cc1)c1ccccc1 (stereo not given) | 11.4% |
| O=C(NCCNc1ccc([N+](=O)[O-])cc1Cl)c1ccccc1F | 11.6% |
| COc1ccc(/C=C2/NC(=S)NC2=O)cc1OCc1ccccc1 | -1.2% |
| COC(=O)C1=CNC=C(C(=O)OC)C1c1ccccc1C | 6.5% |
| O=C(/C=C/c1ccc(Cl)cc1)Nc1ccc(OC(F)(F)F)cc1 | -5.2% |

| SMILES | displacement |
| --- | --- |
| COc1ccccc1NS(=O)(=O)c1ccc(C)c([N+](=O)[O-])c1 | -0.3% |
| COc1ccc(CNCc2cccc(Cl)c2)cc1OC | -11.5% |
| CC(C)(C)c1ccc(S(=O)(=O)N/N=C/C=C/c2ccco2)cc1 | -9.2% |
| COc1ccc(OC)c(/C=C/C(=O)c2c(-c3ccccc3)c3cc(Br)ccc3[nH]c2=O)c1 | 10.7% |
| COc1ccc(C(N)=O)cc1NC(=O)c1ccc(Cl)c(Cl)c1 | 3.9% |
| O=C(NCc1ccccn1)c1ccccc1[N+](=O)[O-] | -5.8% |
| CCOc1ccc(C(=O)Nc2ccccc2O)cc1Cl | -9.2% |
| C/C(=N\N1CCN(Cc2cccc3ccccc23)CC1)c1ccc(O)cc1 | -5.8% |
| CCOC(=O)C1=C(O)/C(=C/c2ccc(C)cc2)SC1=Nc1ccc(C)cc1 | -8.9% |
| CC(/C=C/c1ccc2ccccc2c1)=C\C(=O)O | 12.3% |
| Cc1ccccc1OCC(=O)N1CCN(c2ccc([N+](=O)[O-])cc2)CC1 | -6.5% |
| COc1ccc(Br)cc1/C=C/C(=O)c1ccc(F)cc1 | -10.1% |
| Cc1cc(Cl)ccc1OCC(=O)N(CC(C)C)CC(C)C | -7.2% |
| COc1ccc(CCC(=O)Nc2ccc(Cl)c([N+](=O)[O-])c2)cc1 | 7.5% |
| Cc1ccc(OCCNC(=O)Cc2cccc3ccccc23)cc1 | 9% |
| Clc1cccc(Cl)c1SCCc1ccncc1 | 7.1% |
| CCOc1ccc(N/C(=N/S(=O)(=O)c2ccccc2)c2ccccc2)cc1 | 14% |
| COc1ccc(Cl)cc1NC(=O)C1=C(C)NC(=S)NC1c1ccccc1Cl (stereo not given) | 19% |
| CC(C)Cc1cc(C(=O)O)c2ccccc2n1 | 12.6% |
| Cc1ccc(S(=O)(=O)Nc2ccc(N3CCCCC3)cc2)cc1[N+](=O)[O-] | 12.8% |
| CN1CC(CO)O/C1=C(C#N)\C=C1\Nc2ccccc2C1=O (stereo not given) | -112% |
| Cc1ccccc1/[N+]([O-])=C/c1cccs1 | 0.1% |

| SMILES | displacement |
| --- | --- |
| O=C(c1ccc2c(c1)C(=O)N(c1ccncc1)C2=O)c1ccc2c(c1)C(=O)N(c1ccncc1)C2=O | -2.9% |
| C=CCn1c(SCC(=O)NCc2ccco2)nc2sc3c(c2c1=O)CCC3 | 4.1% |
| Cc1ccnc(NS(=O)(=O)c2ccc(NC(=O)c3cccc(Oc4ccccc4)c3)cc2)n1 | 12.3% |
| COc1ccc(C(=O)NC(C(Cl)(Cl)Cl)S(=O)(=O)c2ccc(C)cc2)cc1OC (stereo not given) | 10.7% |
| O=C(/C=C/c1ccccc1)NC(=S)Nc1cccc(NC(=O)c2cccc(Cl)c2)c1 | 5.1% |
| O=C1/C(=C/c2cc([N+](=O)[O-])ccc2Cl)SC(=S)N1c1ccccc1 | 3.1% |
| O=C1CC(N2CCN(c3ccc([N+](=O)[O-])cc3)CC2)C(=O)N1c1cccc(Cl)c1 (stereo not given) | -5.2% |
| C#CCOc1ccc(/C=C2\C(=O)NC(=O)N(c3ccc(C)cc3)C2=O)cc1 | -40.5% |
| O=C(Nc1ccc(Br)cc1)C1CCCC1 | -10.4% |
| N=C1S/C(=C\c2ccc3c(c2)OCO3)C(=O)N1c1ccc(F)cc1 | 2.6% |
| O=C1C=C(NNC(=O)c2ccc(Cl)cc2)CC(c2ccco2)C1 (stereo not given) | 26.4% |
| O=S(=O)(Nc1ccc(Oc2ccccc2)cc1)c1ccc(F)cc1 | -11.5% |
| COc1ccc(C(=O)Nc2ccc(OC(F)(F)F)cc2)cc1OC | 42.5% |
| CCOc1ccccc1NC(=O)c1ccc(Cl)cc1Cl | -11% |
| COc1ccc(OC(C)C(=O)Nc2ccc(C(=O)OC(C)C)cc2)cc1 (stereo not given) | 13.7% |
| Cc1[nH]n(-c2ccccc2)c(=O)c1C(=O)c1ccccc1F | 9.2% |
| CN1CCN(C(=O)c2nn3c(C(F)(F)F)cc(-c4ccco4)nc3c2Cl)CC1 | -6% |
| N/C(=N\OC(=O)c1ccccc1F)c1cccnc1 | -13.8% |
| COc1ccc(N(CC(=O)O)S(C)(=O)=O)cc1Cl | 9.9% |
| N/C(=N\OC(=O)Cc1ccc(Cl)cc1)c1ccccc1 | 0.4% |
| CCOC(=O)c1[nH]cnc1C(=O)NCc1ccccc1 | 11.4% |
| COc1ccc(NC(=O)C(c2ccccc2)c2ccccc2)cc1OC | -7.4% |

| SMILES | displacement |
| --- | --- |
| CCOC(=O)c1ccc2[nH]c3c(c2c1)CCCCC3=O | -2.9% |
| CC1(C)CC(=O)C2=C(C1)OC1=C(C(=O)CC(C)(C)C1)C2c1c(O)ccc2ccccc12 | -0.6% |
| CCc1nn2c(C(F)(F)F)cc(=O)[nH]c2c1C | -7.1% |
| COc1cccc(C(=O)NC(NC(=S)Nc2ccc(C)cc2)C(Cl)(Cl)Cl)c1 (stereo not given) | -5% |
| Cc1ccc(NC(=O)CCOc2ccccc2)c(Br)c1 | 2.3% |
| Cn1ncc([N+](=O)[O-])c1/C=C/N1CCOCC1 | 2.6% |
| CC(C)=NNC(=O)C(C)Sc1ccccc1 (stereo not given) | 2.6% |
| COc1ccccc1N1C(=O)/C(=C\c2ccc(Cl)cc2Cl)SC1=S | 6.5% |
| CC(C)c1ccc(-c2nn(-c3ccccc3)cc2-c2nnc(N)o2)cc1 | 4.4% |
| CC(=O)Nc1ccc(C(=O)NCc2ccco2)cc1 | 3.9% |
| O=C1CC(N(CCc2ccccc2)C(=O)c2ccccc2)C(=O)N1c1ccccc1 (stereo not given) | -5.4% |
| COC(=O)c1ccccc1NC(=O)CN(c1ccc(OC)c(Cl)c1)S(C)(=O)=O | -0.1% |
| COc1ccc(/C=N/NC(=O)CCNc2n[nH]c(=O)[nH]c2=O)cc1 | -9.3% |
| CN1CCc2c(sc3nc(SCC(=O)c4ccccc4)nc(N)c23)C1 | -5.3% |
| COc1ccc(Cl)cc1NC(=O)COc1ccccc1C | -1.7% |
| CCOC(=O)C1=C(C)N=c2s/c(=C\c3cccc(O)c3)c(=O)n2C1c1ccc(OC)cc1 (stereo not given) | 5.9% |
| O=C(CCNc1ccc(F)cc1)c1ccc(Cl)c(Cl)c1 | -5% |
| O=C1/C(=N\n2cnnc2)c2ccccc2N1Cc1ccccc1 | 1.9% |
| CN(C)c1ccc(NC(=O)c2ccc(Cl)c([N+](=O)[O-])c2)cc1 | 9% |
| COc1ccc(C(=O)NNS(=O)(=O)c2ccccc2)cc1 | 4.3% |
| COc1ccc(Cl)cc1NC(=O)COc1ccc(Cl)cc1Br | -8.7% |
| Cc1ccc2c(c1)c1ccccc1n2COCc1ccccc1 | -6.1% |

| SMILES | displacement |
| --- | --- |
| O=C(Nc1ccccn1)C1CC(=O)N(c2ccc(Br)cc2)C1 (stereo not given) | 4.7% |
| COc1cc([N+](=O)[O-])ccc1-c1ccc(/C=C2/C(C)=C(C#N)c3nc(N)c(C#N)c(C)c32)o1 | -4.8% |
| COc1cccc(/C=C2\C(=O)NN(c3ccccc3)C2=O)c1O | 15.7% |
| NNC(=O)CSc1nc2ccccc2n1Cc1ccccc1 | -9.6% |
| COc1cc(-c2nc(-c3ccccc3)c(-c3ccc([N+](=O)[O-])cc3)[nH]2)cc(OC)c1O | -6.7% |
| Cc1cc(C)n(C(=O)c2cccc(Br)c2)n1 | -8.5% |
| Cc1ccc(C(=O)Nc2ccc3nn(-c4ccc(F)cc4)nc3c2)cc1[N+](=O)[O-] | -2.9% |
| O=C(Nc1ccc(O)c(-c2nc3ccccc3s2)c1)c1cc2ccccc2o1 | 19.6% |
| CCN(CC)S(=O)(=O)c1ccc(Cl)c(C(=O)Nc2sc3c(c2C#N)CCCC3)c1 | -11.3% |
| O=C1c2cccc3cccc(c23)C(=O)N1CCSc1nc2sc3c(c2c(=O)[nH]1)CCCC3 | -1.9% |
| COc1ccc(OC)c(/C=C2\SC(N3CCCC3)=NC2=O)c1 | -16.2% |
| CCCC(=O)Nc1ccc(NC(=O)c2ccc(Cl)cc2Cl)cc1 | -3.3% |
| CCOC(=O)c1ccc(N2NC(=O)/C(=C/c3cc(Cl)cc(Br)c3O)C2=O)cc1 | -10.1% |
| CC(=O)c1cccc(NC(=O)COc2ccccc2C(C)(C)C)c1 | 6% |
| COc1ccc(/C=N/N(C)c2cc(C)nc(-c3ccccc3O)n2)cc1 | -6.9% |
| COc1ccc(OCC(=O)Nc2ccc3oc(-c4ccc(Cl)cc4Cl)nc3c2)cc1 | -9.1% |
| CSC(N)=NC(=NS(=O)(=O)c1ccccc1)c1ccccc1 | 3.9% |
| O=C(N/N=C(/C=N/O)c1ccccc1)c1cccc(Br)c1 | 1.4% |
| Cc1ccc(N2CC(C(=O)Nc3cccc(Cl)c3)CC2=O)cc1 (stereo not given) | -7.6% |
| COCCCNC(=O)CN(c1cccc(Cl)c1)S(C)(=O)=O | -2.4% |
| COc1ccc(N(CC(=O)NCc2ccccc2OC)S(=O)(=O)c2ccccc2)cc1Cl | 3.2% |
| CCOc1cc(OCC)cc(C(=O)Nc2cccc(NC(=O)c3ccccc3C)c2)c1 | 9% |
